# Several values for one entry are separate records, joined by “and”; a condition that tells them apart may be missing. Identical values can stand only once. The campaign covered roughly 410,000 compounds. About 7,200 (1.8%) were called active. Inconclusive means that the source gave no clear call. Such entries were picked first, then a sample of the others. The call rests on the fitted dose curve; in most records, active means well fitted activation curve with a large enough effect; inconclusive means small, poorly fitted or top-dose-only effect, or another doubt; inactive means no such curve, though single readings can be large or run the other way. No potency is given beside an inconclusive call; the fits are too rough. A structure can be active in one record and inactive in another.
# Assay: qHTS of TDP-43 Inhibitors; further: nearly all actives have a fitted effect of over 50% in size; on growth rescue (activation): % of control where 0% means no effect
# Settings: TDP-43 expressing yeast growth rescue, BacTiter-Glo, 24 h; growth rescue (activation): at 46.1 µM (top of the series)
# Outline: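 Galactose-induced TDP-43 yeast, OD600=0.02, compound pinned; 24 hr, 30 deg C; BacTiter-Glo luminescence for growth. Inhibitors of TDP-43 toxicity read as activators.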
# Potency means the concentration at half of the fitted maximal effect; tags describe the fitted curve by direction and shape.
Structure (SMILES),Potency,growth rescue (activation)
Cc1ccccc1-n1c(/C=C/c2ccccn2)nc2ccccc2c1=O,"inconclusive [activator, single point]",–
COC(=O)C1=C(c2ccc(F)cc2F)C[C@@H]2CC[C@H]1N2C(=O)NCCOc1ccccc1Cl,"inconclusive [activator, single point]",–
Nc1c(C(=O)NC2CCCC2)c2nc3ccccc3nc2n1CC1CCCO1 (configuration not stated),active: 12.6 µM,–
Cc1ccc(C(=O)Nc2ccccc2)cc1S(=O)(=O)N1CCCC1,"inconclusive [activator, partial curve]",–
O=C1C(Cl)=C(N2CCCCCC2)C(=O)N1c1ccccc1,active: 11.2 µM,–
O=C(Nc1ccc(Cl)cc1)Nc1nccs1,active: 20 µM,–
CCCOC(=O)C1C2c3ccccc3C(c3ccccc32)C1C(=O)O (configuration not stated),"inconclusive [activator, single point]",–
COc1nc2ccccc2c(=O)n1-c1ccc(Cl)cc1,"inconclusive [activator, single point]",–
Cn1c(O)c(C2=NNC(c3ccc(Cl)cc3)C2)c(=O)n(C)c1=O (configuration not stated),"inconclusive [activator, partial curve, poor fit]",–
CC(=NCc1ccco1)c1c(O)n(C2CCCCC2)c(=O)[nH]c1=O,"inconclusive [activator, partial curve]",–
CCOC(=O)[C@]12Cc3cc(C)ccc3[C@H]1N(C1CCCCC1)C(=O)c1ccccc12,–,inconclusive: -87.6% [activator]
COc1cc(C#Cc2c(-c3cncn3C)n(C)c3ccc(-c4cnc(N5CCOCC5)nc4)cc23)cc(OC)c1,"inconclusive [activator, single point]",–
CC12CCC3C(CCC4CC(=O)OCC43C)C1CCC2O (configuration not stated),"inconclusive [activator, single point]",–
COc1ccccc1NC(=O)Oc1cccc(OC(=O)c2ccccc2)c1,"inconclusive [activator, partial curve]",–
COc1ccc(-c2ccc3c(c2)CN(C(=O)CCc2ccccc2)Cc2cnnn2-3)cc1,"inconclusive [activator, single point]",–
Cc1ccccc1-n1c(/C=C/c2c(C)[nH]c3ccccc23)nc2ccccc2c1=O,active: 15.8 µM,–
O=S(=O)(NC1CCCCCCC1)OCC(Cl)(Cl)Cl,active: 35.5 µM,–
COc1ccc(C(O)P(=O)(Oc2ccccc2)Oc2ccccc2)cc1 (configuration not stated),"inconclusive [activator, single point]",–
C=C(C=O)CC1CC(O)[C@]2(C)OC3CC4OC5C[C@]6(C)O[C@]7(C)CCC8OC9C[C@]%10(C)OC%11C(C)=CC(=O)OC%11CC%10OC9C[C@@H](C)C8OC7CC6O[C@]5(C)CC5OC5C4OC3CC2O1 (some centres not stated),active: 3.16 µM,–
Cc1ccccc1-n1nc(C)c2c1NC(=O)CSC2c1ccc(Cl)cc1 (configuration not stated),active: 17.8 µM,–
COC(=O)c1ccccc1N=Cc1c(O)[nH]c(=S)[nH]c1=O,"inconclusive [activator, single point]",–
COc1cc(Cn2c(=O)oc3ccc(C)cc32)ccc1OC(C)C,active: 35.5 µM,–
CCOc1ccc(C(C)=O)cc1Cn1ccsc1=N,"inconclusive [activator, partial curve]",–

Structure (SMILES),Potency,growth rescue (activation)
Cc1c(C(c2ccc(Br)cc2)c2c(O)c3ccccc3oc2=O)c(=O)n(-c2ccccc2)n1C (configuration not stated),inactive and active: 14.1 µM,–
CCOC(=O)c1sc(/N=C/c2c(O)n(-c3cccc(C)c3)c(=O)[nH]c2=O)c(C#N)c1C,"inconclusive [activator, partial curve]",–
CC12CCC3c4ccc(O)c([N+](=O)[O-])c4CCC3C1CCC2=O (configuration not stated),"inconclusive [activator, partial curve]",–
COC(=O)C1=C(c2ccc3ccccc3c2)C[C@@H]2CC[C@H]1N2C(=O)N1CCCCC1,active: 20 µM,–
Cc1ccc(CN(C)C(=O)c2cccc(S(=O)(=O)N3CCN(c4ccccc4)CC3)c2)cc1,"inconclusive [activator, single point]",–
CCCCn1c(O)c(C(C)=NCc2ccco2)c(=O)[nH]c1=O,–,inactive: -0.836%
COc1ccc(CCNC(=O)COC(=O)Cc2ccccc2)cc1,"inconclusive [activator, single point]",–
CCOC(=O)C1(c2ccccc2)CCN(CCC(=O)Nc2ccc(C(=O)OC)cc2)CC1,–,inactive: 2.17%
COc1ccc(Nc2c(-c3cc(Br)ccc3O)nc3ncccn23)cc1OC,"inconclusive [activator, partial curve, poor fit]",–
COc1ccc(-c2noc(=O)n2Cc2cc(C)ccc2C)cc1,active: 17.8 µM,–
O=[N+]([O-])c1ccc(N2CCOCC2)c2ccncc12,"inconclusive [activator, partial curve, poor fit]",–
CCCc1[nH][nH]c(=O)c1C(c1ccccc1)C(C#N)C#N (configuration not stated),"inconclusive [activator, single point]",–
COc1cccc(NC(=O)c2cccn(Cc3ccccc3C)c2=O)c1,"inconclusive [activator, single point]",–
COc1ccc(-c2ccc3n2Cc2cnnn2-c2ccccc2-3)cc1,"inconclusive [activator, single point]",–
COc1ccccc1C1SCC(=O)Nc2c1c(C)nn2-c1cccc(C)c1 (configuration not stated),"inconclusive [activator, single point]",–
Cc1nc(Cl)sc1C(=O)Nc1ccc2ccccc2c1,"inconclusive [activator, partial curve]",–
O=C1c2ccccc2-n2nncc2C2c3cc(Br)ccc3CCN12 (configuration not stated),active: 35.5 µM,–
CC(C)(C)c1ccc(C(=O)Nc2ccc3nc(SCC(=O)N4CCCC4)sc3c2)cc1,"inconclusive [activator, partial curve, poor fit]",–
O=C1NC(=S)NC(=O)C1=Cc1ccc(OCc2ccccc2)cc1,active: 17.8 µM,–
Clc1ccc2c(c1)C(c1ccccc1Cl)=NCc1nnc(Br)n1-2,–,inactive: 9.16%
O=c1oc(Cl)c(Cl)c2ccccc12,"inconclusive [activator, single point]",–
CC1CC(C)CC(C)C(O)C(C#N)=CC=CCC(C2CCCC2C(=O)O)OC(=O)CC(O)C(C)C1 (configuration not stated),–,inconclusive: -87.2% [activator]
O=C1NC(=S)NC(=O)C1=Cc1ccc2c(c1)CCN2CCCCl,"inconclusive [activator, single point]",–

Structure (SMILES),Potency,growth rescue (activation)
Cc1cc(OCCCC(=O)NCc2cccs2)ccc1Cl,"inconclusive [activator, single point]",–
CCCCSC1=NN1c1nc(N)nc(C)c1CC,"inconclusive [activator, single point]",–
O=C1NCN(c2ccccc2)C12CCN(C(c1cccs1)c1nnnn1C1CCCCC1)CC2 (configuration not stated),"inconclusive [activator, full curve, poor fit]",–
CCOC(=O)c1c(-c2ccccc2)oc2ccc(OC(=O)N(C)C)cc12,–,inactive: 7.35%
CCOC(=O)[C@]12Cc3cc(OC)ccc3[C@H]1N(C1CCCCC1)C(=O)c1ccccc12,–,inconclusive: -88.6% [activator]
CC(N)C(=O)NC1C2C(=C(O)CC(O)C2O)C(=O)OC1(C)C(Cl)Cl (configuration not stated),"inconclusive [activator, single point]",–
Cc1cc(C(=O)OCC(=O)Nc2cccc(F)c2)c(C)n1C1CC1,"inconclusive [activator, single point]",–
Cn1ccc2c(-c3ccc(F)nc3)cc3c(c21)C1CCC3C1 (configuration not stated),"inconclusive [activator, partial curve]",–
Cc1cccc(CN2C(=O)CN=C(c3ccccc3)c3ccccc32)c1,–,inactive: 5.49%
CC12Nc3ccccc3C(=O)N1Cc1cnnn1-c1ccccc12 (configuration not stated),"inconclusive [activator, full curve, poor fit]",–
CCC1(O)C(=O)OCc2c1cc1n(c2=O)Cc2cc3c(N)cccc3nc2-1 (configuration not stated),"inconclusive [activator, partial curve]",–
CC(C)C(=O)c1cn(Cc2ccc(C#N)cc2)c2ccccc12,"inconclusive [activator, single point]",–
Nc1ccc2c3c(cccc13)-c1ccccc1-2,active: 11.2 µM,–
Cc1ccc(OCCOc2cccc(C=C3C(=O)NC(=O)NC3=O)c2)c(C)c1,–,inconclusive: 76.2% [activator]
O=C1Nc2ccccc2Sc2ccccc21,"inconclusive [activator, partial curve]",–
CCCNC(=O)N1[C@H]2CC[C@@H]1C(C(=O)OC)=C(c1ccc(C(C)=O)cc1)C2,"inconclusive [activator, partial curve]",–
C=CC[N+](C)(C)c1ccc(CCC(=O)CCc2ccc([N+](C)(C)CC=C)cc2)cc1,"inconclusive [activator, partial curve]",–
Cn1ncnc2c(=O)n(C)c(=O)nc1-2,"inconclusive [activator, single point]",–
CC(=O)c1c(O)cc2c3c1OC(C)(C)C1CCC(C)(CC31)O2 (configuration not stated),"inconclusive [activator, partial curve]",–
c1ccc(-c2nnc(SCc3nc4ccccc4[nH]3)o2)cc1,active: 12.6 µM,–
O=c1oc2ccccc2n1CSC1=NCCS1,"inconclusive [activator, single point]",–
